In PubChem BioAssay AID1346428 (National Center for Advancing Translational Sciences (NCATS), 2018):
“And” between values parts separate entries of the source, which are not always exact repeats. Identical values can stand only once. The whole screen tested about 48,000 compounds, of which about 1,200 (2.5%) were called active. Roughly 2% stayed inconclusive and do not appear here.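 The calls were made as follows: active = activation of at least 60% and not above a set upper limit (about 1 call in 100 departs from these limits); inconclusive = activation of 40% to 60%, or above that upper limit; inactive = activation under 40%.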 Some of the results follow.

Target: Probable G-protein coupled receptor 32 (Homo sapiens) (UniProt O75388)
UniProt O75388, sequence (O75388 whole entry, looked up): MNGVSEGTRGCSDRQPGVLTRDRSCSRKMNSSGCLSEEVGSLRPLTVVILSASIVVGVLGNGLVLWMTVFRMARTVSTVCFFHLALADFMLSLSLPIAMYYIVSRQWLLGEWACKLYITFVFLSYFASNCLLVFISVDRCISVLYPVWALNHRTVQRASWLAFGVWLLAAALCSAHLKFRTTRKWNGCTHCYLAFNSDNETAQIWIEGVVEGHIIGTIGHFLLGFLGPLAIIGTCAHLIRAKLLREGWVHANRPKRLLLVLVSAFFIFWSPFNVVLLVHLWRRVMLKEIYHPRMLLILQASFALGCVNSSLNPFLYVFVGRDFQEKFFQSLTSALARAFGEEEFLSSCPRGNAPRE
Assay: qHTS for Agonists of Human Resolvin D1 Receptor DRV1; also: 0% is about no effect
Conditions: CHO-K1 GPR32 beta-arrestin PathHunter luminescence, 90 min; at 76.9 µM; hits give high values; zero percent set by DMSO-only wells
Outline: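 Using DMSO wells as EC0, agonist-induced signal was taken as chemiluminescence from beta-Gal reconstituted upon beta-arrestin recruitment to GPR32 in CHO-K1 cells after 90 min compound treatment.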

activation, inactive:
Cc1nnc(SCC(=O)Nc2ccc(N(C)C)cc2)[nH]c1=O 15.5%
CCc1ccc(NC(=O)Cn2c(=O)n(CCCC(=O)NCCc3ccc(OC)c(OC)c3)c(=O)c3ccccc32)cc1 28.6%
COCCNC(=O)CN1C(=O)COc2ccc(S(=O)(=O)N3CCCC3)cc21 8.63%
CCN(CC)CCOC(=O)c1ccc(NC(=O)c2cc3cc(OC)ccc3oc2=O)cc1 13.8%
CCOc1ccc(Sc2cc(C(=O)NCc3ccccc3Cl)c3ccccc3n2)cc1 -19.2%
Cc1ccccc1NC(=O)CCn1nc(-c2ccccc2)c2ccccc2c1=O -16.5%
CCCCNC(=O)CN1C(=O)c2c(c3ccccc3n2C)C1c1ccc(OC)cc1 (stereo not given) -15.9%
CC(C)(C)C(=O)Nc1nc2nc(-c3ccccc3)cc(=O)n2[nH]1 -6.2%
C[C@]12C=CC(=O)C=C1CC[C@@H]1C2=CC[C@]2(C)[C@@H](C(=O)CN3CCN(c4cc(N5CCCC5)nc(N5CCCC5)n4)CC3)CC[C@@H]12 -31.1%
COc1ccc(Nc2nc(Nc3ccc(OC)cc3OC)nc(N3CCOCC3)n2)c(OC)c1 -27.4%
Cc1ccc2oc(-c3cccc(NC(=O)c4ccc(N5CCC(C)CC5)c([N+](=O)[O-])c4)c3)nc2c1 -10.1%
C=CCn1c(=O)n([C@@H]2O[C@H](CO)[C@@H](O)[C@H]2O)c2nc(N)[nH]c(=O)c21 27.9%
Cc1oc(-c2ccc(Cl)cc2)nc1CN1CCCC(C(=O)NCCc2ccccc2)C1 (stereo not given) 16.4%
CCc1cccc(C)c1NC(=O)c1cc(S(=O)(=O)N2CCC3(CC2)OCCO3)ccc1F 11.4%
COc1ccc(C2CC(=O)c3cc(-c4nc(-c5cccc([N+](=O)[O-])c5)cs4)c(=O)n(-c4ccc(F)cc4)c3C2)cc1 (stereo not given) 0.0821%
C[C@]12C=CC(=O)C=C1CC[C@@H]1[C@@H]2C(=O)C[C@@]2(C)[C@H]1CC[C@]2(O)C(=O)CO -18.8%
Cc1ccc(S(=O)(=O)N2CCCc3cc(NS(=O)(=O)c4ccc(C)c(C)c4)ccc32)cc1 -19.8%
CC(=O)c1ccc(NC(=O)CSc2c(C(C)C)cnc3c2c(=O)n(C)c(=O)n3C)cc1 -25%
COC(=O)c1ccn(-c2nc(-c3ccc(Cl)cc3)cc(C(F)(F)F)n2)n1 -6.5%
O=C(Cn1c(=O)n(Cc2ccc(C(=O)NCc3ccc4c(c3)OCO4)cc2)c(=O)c2ccccc21)Nc1ccc(F)cc1F -7.26%
COc1ccc(C2(N3CCN(c4cccc(C)c4C)CC3)C(=O)c3ccccc3C2=O)cc1 -9.51%
Cc1c(-c2nnc(SCC(=O)Nc3ccc(Br)cc3)o2)nnn1-c1ccc(F)cc1 19.5%
O=C(CS(=O)(=O)c1cccc2nsnc12)N1CCN(c2ccccc2)CC1 -4.72%
COc1ccc(-c2nc(C)c(CCNS(=O)(=O)c3ccc(F)cc3)s2)cc1OC 26.5%
Nc1ncnc2nc(-c3ccc(N4CCOCC4)nc3)cc(-c3cccc(Br)c3)c12 3.47%
CC(C)c1ccc(CN(Cc2ccco2)c2cnc(S(C)(=O)=O)nc2C(=O)Nc2ccccc2)cc1 -6.79%
CCCCNC(=O)C1CCN(c2nc3ccc(C)cc3[nH]2)CC1 -10.5%
COC(=O)c1ccccc1NC(=O)c1cn2c3c(ccc(Cl)c3c1=O)OC(C)C2 (stereo not given) 10.9%
NC(=O)CSc1oc(-c2cccs2)nc1S(=O)(=O)c1ccc(Br)cc1 -1.93%
Cc1cccc(C(=O)Nc2ccc(C(=O)OCc3cc(=O)n4c(C)csc4n3)cc2)c1 -3.62%
CCCCOc1cccc(C(=O)N(Cc2ccc(Br)o2)C2CCS(=O)(=O)C2)c1 (stereo not given) -31%
Cc1cc(F)ccc1NC(=O)C1CCN(S(=O)(=O)c2ccc3c(c2)CCCC(=O)N3)CC1 -0.241%
Cc1ccccc1Cn1cc(CCC(=O)NCc2cccc(Br)c2)c2ccccc21 -21.9%
O=C(c1cnc2c(c1)COc1ccccc1-2)c1ccccc1O 41.7%
COC(=O)c1ccc(NC(=O)N2CCN(c3nnc(C)c4c(C)n(-c5ccccc5)nc34)CC2)cc1 -11%
O=C(Cn1c(=O)c(C(F)(F)F)nc2ccccc21)Nc1ccc(Br)cc1F 1.5%
COc1ccc(S(=O)(=O)N2CCN(c3ccccc3)CC2)cc1-c1noc(C)n1 -10.4%
CC(C)c1cnc2c(c1SCC(=O)c1ccccc1)c(=O)n(C)c(=O)n2C -27%
O=C(NCc1ccccc1)c1ccc2c(c1)N(Cc1ccccc1)C(=O)c1ccccc1S2(=O)=O -29%
CC(C)(C)NC(=O)CSc1nc(-c2ccc(F)cc2)cc(C(F)(F)F)n1 11.4%
COc1ccc(S(=O)(=O)NCC(c2ccco2)N2CCN(c3ccc(F)cc3)CC2)cc1 (stereo not given) -31.6%
Cc1cc(C)cc(NC(c2nnc(-c3cccc(F)c3)o2)c2ccc(F)cc2Cl)c1 (stereo not given) -25.6%
COc1ccc(Cc2nc3ccc(C(=O)NCCc4ccc(OC)c(OC)c4)cc3o2)cc1 -23.5%
Nc1ccc(C(=O)Nc2ccccc2N)cc1 6.98%
CCOC(=O)Cn1c(=O)n(C2CCCCC2)c2nc(-c3ccc(OC)cc3)nc(C(N)=O)c21 -7.63%
Cc1cc(C)c(S(=O)(=O)Nc2cc(Cl)c3oc4c(c3c2)C(=O)CCC4)cc1C -11.1%
Cn1c(=O)n(C)c2cc(CNCc3ccccc3)ccc21 1.51%
Cc1ccc(CNS(=O)(=O)c2cc(Br)cc3c2N(C(=O)C2CC2)CC3)cc1 2.67%
Cc1ccc(Cn2c(=O)n(Cc3ccccc3)c(=O)c3c(C)c(C)sc32)cc1 -7.92%
Cc1ccc(CNC(=O)C(=O)NCC(c2ccco2)S(=O)(=O)c2ccc(C)cc2)cc1 (stereo not given) -15%
Cc1cccc2c(=O)cc(CSCC(=O)Nc3ccc(Cl)cc3)[nH]c12 -11.3%
CCOc1ccc(C(=O)Nc2ccc(-c3nnc4n3CCCCC4)cc2)cc1OCC -9.16%
CS(=O)(=O)Nc1ccc([N+](=O)[O-])cc1Oc1ccccc1 -54.3% and -33.3%
COc1cc(C)nc(-n2nc(C)cc2OC)n1 -31.4%
Cc1ccc(-n2c(=O)c3c4c(sc3n(CC(=O)Nc3cccc(Cl)c3)c2=O)CCCCC4)cc1C -1.85%
Fc1ccc(C(NCCc2ccccc2)c2nnc(-c3ccccc3Cl)o2)cc1 (stereo not given) -25.2%
Cc1ccc(C)c(CN2CCCN(CC(=O)Nc3ccc(C)c(C)c3)S2(=O)=O)c1 -2.25%
Cc1cccc(C)c1OCC(=O)NC(Cc1c[nH]c2ccccc12)C(=O)O (stereo not given) 6.57%
Cc1ccc(S(=O)(=O)NCc2nc3nc(C)cc(C)n3n2)cc1 5.62%
Cn1cc(C(=O)NCc2ccccc2Cl)c(=O)c2cc(S(=O)(=O)N3CCCCCC3)ccc21 -6.61%
CCOC(=O)c1c(S(=O)(=O)N2CCC(C(=O)N3CCN(c4ccccc4F)CC3)CC2)c(C)n(C)c1C -0.626%
CCn1cc(C(=O)O)c(=O)c2cc(F)c(N3CCNC(C)C3)c(F)c21 (stereo not given) -27.7% and 3.87%
COc1cc(Cl)c(C)cc1NC(=O)CCc1nc2cccnc2n1Cc1cccs1 -16.4%
CCN(CC)CCCNC(=O)c1ccc(Cn2c(=O)[nH]c3cc(OC)c(OC)cc3c2=O)cc1 -12.8%
CCOC(=O)c1ccc(NC(=O)CCCn2c(=O)c3cccn3c3cccnc32)cc1 -7.26%
COc1ccc(CCNC(=O)c2cn(C)c3ccc(S(=O)(=O)N4CCOCC4)cc3c2=O)cc1OC 23.8%
CC(C)N(Cc1ccccc1)C(=O)Cn1ncc2c3ccccc3n(Cc3ccccc3)c2c1=O -12.3%
Cc1nn(-c2ccc(Cl)cc2)c2nc(-c3cccnc3)cc(C(F)(F)F)c12 -15%
COc1ccc(NC(=O)C2CCN(S(=O)(=O)c3c(C)noc3/C=C/c3cccs3)CC2)cc1 -14.9%
Cc1cccc(Cn2c(SCc3ccc(C(=O)NC4CCCC4)cc3)nc3cccnc32)c1 -9.63%
COc1cccc(-c2noc(CCCC(=O)NCc3ccco3)n2)c1 -5.98%
O=C(CSc1ccccc1)NCc1ccc2c(c1)CCN2C(=O)c1ccccc1 -11.6%
COc1ccc(OC)c(CNC(=O)c2ccc(NC(=O)c3nsc4ccccc34)cc2)c1 -17.1%
Cc1ccccc1OCCCCn1c(CCNC(=O)C(C)(C)C)nc2ccccc21 -0.665%
COc1ccc(OC)c(S(=O)(=O)NCC(c2ccco2)S(=O)(=O)c2ccccc2)c1 (stereo not given) -20.4%
COC(=O)c1ccccc1NC(=O)c1ccc(-c2nc(CSc3ccc(C)cc3)c(C)o2)cc1 0.344%
CCn1cc(S(=O)(=O)c2cccc(Cl)c2)c(=O)c2cc(F)c(N3CCN(C)CC3)cc21 5.06%
CN(Cc1ccccc1)C(=O)CCS(=O)(=O)c1ccc2c(c1)oc(=O)n2C -16.5%
CNC(=O)c1c(NC(=O)c2nc(SCc3ccc(C)cc3)ncc2Cl)sc2c1CCCC2 16.8%
CCOC(=O)c1cc(S(=O)(=O)N2CCN(c3cccc(C)c3C)CC2)[nH]n1 -44.9%
